# Reference: PubChem BioAssay AID1345083 (National Center for Advancing Translational Sciences (NCATS), 2018)
# The campaign covered roughly 94,000 compounds. About 6,200 (6.6%) were called active. This list was built around the results that the source calls inconclusive (neither active nor inactive); the mix of calls is not that of the screen. Calls follow the shape of the dose curve; as a rule, active = well fitted inhibition curve with a large enough effect; inconclusive = small, poorly fitted or top-dose-only effect; inactive = flat fitted curve, though single readings scatter. Potencies of inconclusive entries are doubtful fits and often do not repeat.
# Assay: Cytotoxic Profiling in HEK 293 Cell Line of Diverse Libraries Using Quantitative High-Throughput Screening; also: nearly all actives have a fitted effect of over 60% in size
# Settings: HEK 293 viability, ATP luminescence (CellTiter-Glo), 48-72 h; activity change, negative = cytotoxicity: at 115 µM (top of the series) unless noted; series mostly up to 115 µM
# Outline: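 Luminescence from cellular ATP, measured with CellTiter-Glo, indicates HEK 293 viability. Cells plated at 250 cells/well are treated with compound for 48 or 72 hr at 37 degree Celsius before reagent addition.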
# % is scaled to controls: 0 for no effect and ±100 for the full control effect; potency is read from the fitted curve at half-maximal effect; tags tell the direction and shape of the fitted curve.
SMILES,Potency,"activity change, negative = cytotoxicity"
CSc1ccc(-c2nc(CN3CCCC(CO)C3)c(C)o2)cc1 (stereo not given),"inconclusive: 56.2 µM [inhibitor, partial curve, poor fit]",
Cc1cccc(-c2cccc(CN3CCC(NC(=O)C4CC4)CC3)c2)c1,"inconclusive: 112 µM [inhibitor, partial curve, poor fit]",
COc1cccc(CC(=O)N2CCC(CC3CC3)(NS(C)(=O)=O)CC2)c1,,inactive: -0.0328%
COCCNC(=O)c1ccc(OC2CCN(Cc3cccc4c3OCO4)CC2)c(Cl)c1,"inconclusive: 79.4 µM [inhibitor, single point]",
O=C(CCC1CCCN(S(=O)(=O)c2ccccc2F)C1)NCCc1ccccc1 (stereo not given),"inconclusive: 44.7 µM [inhibitor, partial curve, poor fit]",
NCCn1cc(C(=O)N2CC[C@@H](c3ccc4c(c3)OCO4)[C@H](O)C2)nn1,,inactive: -0.664%
COc1ccccc1CNC(=O)[C@@H](C)C1CC[C@@]2(C)CC[C@H](NC(=O)C3CCCCC3)[C@@H](C)[C@@H]2[C@H]1O (stereo not given in full),"inconclusive: 89.1 µM [inhibitor, partial curve, poor fit]",
O=S(=O)(c1ccccc1Cl)N1CCCC(CO)(Cc2cccc(Cl)c2)C1 (stereo not given),active: 25.1 µM,
COc1ccc(CNC(=O)N2CC(n3cc(C(=O)NCC4CC4)nn3)C2)cc1,,inactive: 3.98%
O=C1NCCCc2[nH]c(CCSCc3ccc(Cl)cc3)nc21,"inconclusive: 70.8 µM [inhibitor, partial curve, poor fit]",
CCN(CC)Cc1nc(C2(O)CCN(Cc3ccccc3O)CC2)cs1,,inactive: -24.5% [at 172 µM]
CN(Cc1ccc(F)cc1)C(=O)C1(c2ccc(Cl)cc2)CCOCC1,"inconclusive: 44.7 µM [inhibitor, partial curve]",
CCOc1ccc(NC(=O)c2cc3c(N4CCSCC4)nc(C)cn3n2)cc1,,inactive: -10.3%
CCc1noc(-c2cn(C3CCCN(C(=O)c4cccc(Cl)c4)C3)nn2)n1 (stereo not given),"inconclusive: 79.4 µM [inhibitor, partial curve, poor fit]",
COCCCNC(=O)C1c2ccccc2C(=O)N(c2ccccc2)C12CCCCC2 (stereo not given),"inconclusive: 89.1 µM [inhibitor, single point]",
Cc1ccc(C(=O)N2CCCc3nc(C)nc(-c4ccc(O)cc4)c3C2)cc1,"inconclusive: 44.7 µM [inhibitor, partial curve, poor fit]",
CN(Cc1ccccc1)Cc1cc(CC2(NCc3ccc(F)cc3)COC2)no1,"inconclusive: 50.1 µM [inhibitor, partial curve, poor fit]",
O=C(c1ccccn1)N1CCC(N2C(=O)C3(CCCCC3)C2c2ccncc2)CC1 (stereo not given),,inactive: 4.77%
CC(=O)NC1(C)CCN(Cc2ccc(-c3ccc4c(ccn4C)c3)cc2)C1 (stereo not given),"inconclusive: 89.1 µM [inhibitor, partial curve, poor fit]",
COc1ccc(CCNC(=O)c2noc(-c3ccc(C)cc3)n2)cc1OC,"inconclusive: 50.1 µM [inhibitor, partial curve, poor fit]",

SMILES,Potency,"activity change, negative = cytotoxicity"
Cn1ncc2c(C(=O)Nc3ccccc3F)cc(-c3cccc(F)c3)nc21,,inactive: 3.8%
O=C(NCc1ccc(F)c(F)c1)c1ccc2nnc(C3CCCC3)n2c1,,inactive: -28.4%
COc1ccc(-c2noc(-c3nc(-c4cc(OC)c(OC)c(OC)c4)no3)n2)cc1,,inactive: -3.44%
Cc1cccc2c(C3CCN(C(=O)c4c(Cl)cc(Cl)cc4Cl)CC3)c[nH]c12,"inconclusive: 8.91 µM [inhibitor, full curve, poor fit]",
Cc1nc(CN2Cc3nc(-c4cnn(Cc5ccccc5)c4)ccc3OCC2=O)cs1,"inconclusive: 100 µM [inhibitor, partial curve]",
CN(C)[S+](=O)([O-])c1ccc2c(c1)OCCN(Cc1ccccn1)C2,"inconclusive: 112 µM [inhibitor, partial curve, poor fit]",
CC(C)C[C@H](NC(=O)c1csc2nc(-c3cccc(C(F)(F)F)c3)cn12)C(N)=O,"inconclusive: 79.4 µM [inhibitor, partial curve, poor fit]",
COc1ccc(Nc2ccnc(N3CCCC(C(=O)N4CCC(Cc5ccccc5)CC4)C3)n2)cc1 (stereo not given),active: 20 µM,
O=C1COCC2(CN1Cc1ccccc1)CN(C(=O)c1cncc(F)c1)C2,"inconclusive: 126 µM [inhibitor, single point]",
O=Cc1ccccc1-c1ccc(O)cc1,"inconclusive: 39.8 µM [inhibitor, full curve, poor fit]",
Cn1cccc1CN1CCC2(C1)C(=NC1CCCC1)NC(=O)N2c1cc(F)cc(F)c1 (stereo not given),,inactive: -12.2%
CC(C)(C)c1ccc(-c2cc(C[C@H]3CNCC[C@H]3CC(=O)N3CCN(c4ccccn4)CC3)no2)cc1,"inconclusive: 17.8 µM [inhibitor, full curve, poor fit]",
COc1ccc(C(=O)N2CC[C@@H](CC(=O)O)[C@@H](CCN3CCCN(C(C)=O)CC3)C2)cc1,"inconclusive: 89.1 µM [inhibitor, partial curve, poor fit]",
Cc1ccc(-c2nc(CNC(=O)C3CCNC3)[nH]c2-c2ccccn2)cc1 (stereo not given),"inconclusive: 89.1 µM [inhibitor, partial curve, poor fit]",
CS(=O)(=O)N1CCC2(CC1)CC(CC(=O)N1CCN(c3ccccc3F)CC1)CCO2 (stereo not given),"inconclusive: 44.7 µM [inhibitor, partial curve]",
COCC(=O)Nc1ccc(-c2noc([C@@H]3CCCN3Cc3ccc(S(C)(=O)=O)cc3)n2)cn1,"inconclusive: 100 µM [inhibitor, single point]",
Cc1cccc(NC(=O)Cn2c(N(C)Cc3ccccc3)nc(C)cc2=O)c1,"inconclusive: 56.2 µM [inhibitor, partial curve, poor fit]",
CC(C)c1ccc(S(=O)(=O)N2CCC(CC(=O)NCc3ccccc3)C2)cc1 (stereo not given),"inconclusive: 70.8 µM [inhibitor, single point]",
COc1cccc(CNC(=O)c2cc(-c3ccncc3)cn2C)c1,"inconclusive: 35.5 µM [inhibitor, partial curve]",
COc1ccc(NC(=O)NC[C@H]2Cn3cc(-c4ccc(C)cc4)nc3CO2)cc1,"inconclusive: 79.4 µM [inhibitor, partial curve]",
